Experimental findings from a collection of fitness landscapes (doi:10.1126/science.1257360) are described below.

The other results are listed elsewhere or left out.

B1: PhoQ; a variant is named by its letters at X, in order, P23837 (parent)
chain: MKKLLRLFFPLSLRVRFLLATAAVVLVLSLAYGMVALIGYSVSFDKTTFRLLRGESNLFYTLAKWENNKLHVELPENIDKQSPTMTLIYDENGQLLWAQRDVPWLMKMIQPDWLKSNGFHEIEADVNDTSLLLSGDHSIQQQLQEVREDDDDAEMTHSVAVNVYPATSRMPKLTIVVVDTIPVELKSSYMVWSWFIYVLSANLLLVIPLLWVAAWWSLRPIEALAKEVRELEEHNRELLNPATTRELTSLVRNLNRLLKSERERYDKYRTTLTDLTHSLKTPLXXLQXXLRSLRSEKMSVSDAEPVMLEQISRISQQIGYYLHRASMRGGTLLSRELHPVAPLLDNLTSALNKVYQRKGVNISLDISPEISFVGEQNDFVEVMGNVLDNACKYCLEFVEISARQTDEHLYIVVEDDGPGIPLSKREVIFDRGQRVDTLRPGQGVGLAVAREITEQYEGKIVAGESMLGGARMEVIFGRQHSAPKDE

The test covers variants of B1. Description: enrichment ratio after two sorts for PhoP signalling (ratio (wild type AVST 3.29)); higher = more functional. The conditions noted are these: with PhoP (E. coli).
For FMQH, the enrichment ratio was at most 0.25. For DKPS, the enrichment ratio is at most 0.25. Regarding WSYV, the enrichment ratio was at most 0.25. For HDAN the value was at most 0.25. As to RYHP, the enrichment ratio is at most 0.25. In the case of EGRA, the enrichment ratio is at most 0.25. Turning to GPDG, the enrichment ratio was at most 0.25. For DLIP the value was at most 0.25. With FGRV the figure was at most 0.25; with MAAW, at most 0.25. As to AKKY, the enrichment ratio is at most 0.25. With WHAW the figure was at most 0.25; with SHLK, at most 0.25. Take PSTS: the enrichment ratio is at most 0.25. QYNI: the enrichment ratio is at most 0.25. For VEQQ, the enrichment ratio was at most 0.25. For LIVQ the value was at most 0.25; for VGND, at most 0.25. For YFKM the value was at most 0.25; for RYQI, at most 0.25. With VYPR the figure was at most 0.25; with HWTR, at most 0.25.

Regarding FPAH, the enrichment ratio is at most 0.25. For NLTL the value was 4.17. With NARQ the figure was at most 0.25.

Regarding YDGC, the enrichment ratio worked out at 2.74.

As for TECW, the enrichment ratio was 37.6. VDSE: the enrichment ratio is at most 0.25.

For KADN, the enrichment ratio was at most 0.25.

FPAI: the enrichment ratio was at most 0.25. For KFTV the value was at most 0.25; for KLTY, at most 0.25; for ENYS, at most 0.25. For EPHE the value was at most 0.25; for DTDL, at most 0.25. With WQAR the figure was at most 0.25; with NFVE, at most 0.25. With KPAY, the enrichment ratio is at most 0.25. With SQRE the figure was at most 0.25.

HIHH: the enrichment ratio was at most 0.25. For VLGI the value was at most 0.25; for SEIN, 8.3. With QHGN the figure was at most 0.25; with NWKT, at most 0.25; with EQML, at most 0.25. Turning to DCSC, the enrichment ratio is at most 0.25. For SCNY the value was 5.7; for HCGM, at most 0.25; for SKFQ, at most 0.25. With GGKL, the enrichment ratio is at most 0.25. As to PMNN, the enrichment ratio is at most 0.25. Consider FGEG, for which the enrichment ratio is at most 0.25. For VRSQ the value was at most 0.25. With AHPK the figure was at most 0.25; with MLGR, at most 0.25; with HRVD, at most 0.25.

Regarding KQST, the enrichment ratio was at most 0.25. For FNHN the value was at most 0.25; for YIPD, at most 0.25; for EGGK, at most 0.25. With AGGV the figure was 11.4.

Regarding DIYR, the enrichment ratio is at most 0.25. For MSGL the value was 6.17; for ENFK, at most 0.25. With RVVD the figure was at most 0.25; with MKMV, at most 0.25.

With TWCQ, the enrichment ratio is at most 0.25. For TECK the value was 4.11. Take FTPE: the enrichment ratio was at most 0.25.

YLNT: the enrichment ratio was at most 0.25. Take PWFQ: the enrichment ratio was at most 0.25. With AMWP the figure was 4.37. With WIAW the figure was at most 0.25; with SKDF, at most 0.25; with FSFD, at most 0.25. For NCDG the value was at most 0.25; for SGTW, at most 0.25; for LEQG, at most 0.25. Consider DSYC, for which the enrichment ratio is at most 0.25. With LGYV the figure was 3.76; with LAWS, at most 0.25. With RICG the figure was at most 0.25; with GHAD, at most 0.25; with NPIW, at most 0.25. With ATQI the figure was at most 0.25; with YYPY, at most 0.25. With VVHR, the enrichment ratio was at most 0.25.

For the variant VQHI, the enrichment ratio was found to be 0.713.

For the variant HSGI, the enrichment ratio is at most 0.25.

For the variant RYEF, the enrichment ratio was at most 0.25.

On to FGFI, for which the enrichment ratio is at most 0.25. With TFMI the figure was at most 0.25; with HMDI, at most 0.25. With WYKD the figure was at most 0.25. With ARFV the figure was at most 0.25.

PRFL: the enrichment ratio was at most 0.25.

As to PGVF, the enrichment ratio was at most 0.25. For the variant WNCF, the enrichment ratio was at most 0.25.

Turning to DDVK, the enrichment ratio was at most 0.25. With HMEG the figure was at most 0.25; with DEWP, at most 0.25. Regarding QHVH, the enrichment ratio was at most 0.25. For DFYE the value was at most 0.25. With FEEI, the enrichment ratio was at most 0.25. Turning to IIFL, the enrichment ratio is at most 0.25.

Consider ATCL, for which the enrichment ratio amounted to 18.6. With MAKH the figure was at most 0.25. With RRGD, the enrichment ratio is at most 0.25.

Take GNHY: the enrichment ratio was at most 0.25.

For the variant VLPY, the enrichment ratio was at most 0.25. For INYT the value was at most 0.25. As to RIAM, the enrichment ratio is at most 0.25. In the case of KVTV, the enrichment ratio is at most 0.25. Regarding WMYG, the enrichment ratio is at most 0.25. With MNNR the figure was at most 0.25; with YRPW, at most 0.25; with QFCD, at most 0.25. For WKTN the value was at most 0.25; for EVDG, at most 0.25; for NVWL, at most 0.25. For WDYP the value was at most 0.25; for GESV, 1.28; for YMCV, at most 0.25.

Regarding PFGV, the enrichment ratio is at most 0.25.

As to QTYT, the enrichment ratio is at most 0.25. Turning to VAAQ, the enrichment ratio is at most 0.25. Consider HAMP, for which the enrichment ratio is at most 0.25. For AVHT the value was at most 0.25; for HLRM, at most 0.25. With AKVI the figure was 5.34.

As to KCEA, the enrichment ratio is at most 0.25. Consider PVDM, for which the enrichment ratio was at most 0.25. With VNLW the figure was at most 0.25; with LYVL, at most 0.25; with TEDK, at most 0.25. With KELN the figure was at most 0.25; with QRAL, at most 0.25. EEHY: the enrichment ratio is at most 0.25. With QVYI the figure was at most 0.25; with AKGR, at most 0.25; with GVRW, at most 0.25. With CSFR the figure was at most 0.25. For HVWP, the enrichment ratio is at most 0.25.

Turning to QTRV, the enrichment ratio is at most 0.25. As for SKMQ, the enrichment ratio is 13.1.

LEQK: the enrichment ratio is at most 0.25.

As for PIHF, the enrichment ratio is at most 0.25. For KSAQ, the enrichment ratio is at most 0.25. On to GHTN, for which the enrichment ratio is 12.9. With WKPA the figure was at most 0.25; with PQFK, at most 0.25; with QIQP, at most 0.25. With QDRS the figure was at most 0.25.
